According to the supplement of paper PMC9446081:
About 220 (0.56%) of roughly 39,000 compounds showed activity. The list shows a part of the results.

tested on: Escherichia coli K-12 BW25113; experiment: relative growth (OD600 normalised to plate interquartile mean) (fraction); higher = less growth inhibition, active = 0.2 or less; conditions: 50 µM; LB; incubation time: overnight (16-24 h)
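Also: static incubation at 37 °C against the wild-type strain, values averaged over two biological replicates.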

SMILES	relative growth
C[C@H]1CCCCO[C@@H](CN(C)C(=O)c2ccncc2)[C@@H](C)CN([C@@H](C)CO)C(=O)c2cc(NS(C)(=O)=O)ccc2O1	inactive: 1
CCCNC(=O)C[C@@H]1CC[C@@H]2[C@@H](COc3ccc(NS(=O)(=O)c4ccccc4C)cc3C(=O)N2C)O1	inactive: 0.973
C[C@@H]1CN([C@@H](C)CO)C(=O)c2cc(NC(=O)Cn3cnnn3)ccc2O[C@H]1CN(C)Cc1ccc(C(F)(F)F)cc1	inactive: 0.945
CNC(=O)C[C@H]1CC[C@H]2[C@H](COc3ccc(NC(=O)c4ccc(C(F)(F)F)cc4)cc3C(=O)N2C)O1	inactive: 0.978
C[C@H]1CN([C@@H](C)CO)C(=O)c2cccc(NC(=O)c3ccc(-c4nccs4)cc3)c2O[C@@H]1CN(C)Cc1ccc(-c2ccccc2)cc1	inactive: 0.974
C[C@@H]1CN([C@H](C)CO)C(=O)c2cc(NC(=O)CCCCCC(=O)Nc3ccccc3N)ccc2O[C@@H]1CN(C)Cc1ccc(Oc2ccccc2)cc1	inactive: 0.936
O=C(N[C@H]1CC[C@H](CC(=O)N2CCOCC2)O[C@H]1CO)c1ccc2c(c1)OCO2	inactive: 1.01
C[C@@H]1CCCCO[C@H](CN(C)C(=O)NC2CCCCC2)[C@H](C)CN([C@@H](C)CO)C(=O)c2cc(NS(=O)(=O)c3ccc(Cl)cc3)ccc2O1	inactive: 1.03
C[C@@H]1CN([C@H](C)CO)C(=O)Cc2cc(NC(=O)Nc3ccc(C(F)(F)F)cc3)ccc2O[C@@H]1CN(C)S(C)(=O)=O	inactive: 0.997
Cc1ccc(S(=O)(=O)N(C)C[C@H]2Oc3c(NC(=O)C4CCOCC4)cccc3C(=O)N([C@H](C)CO)C[C@@H]2C)cc1	inactive: 1.01
C[C@@H]1CN([C@H](C)CO)C(=O)c2cccc(NC(=O)Nc3ccc(C(F)(F)F)cc3)c2O[C@@H]1CN(C)Cc1ccccc1	inactive: 0.998
NCCC(O)C(=O)NC1CC(N)C(OC2OC(CN)C(O)C(O)C2O)C(O)C1OC1OC(CO)C(O)C(N)C1O.O (stereo unspecified)	active: 0.0465
C[C@H](CO)N1C[C@H](C)[C@@H](CN(C)S(=O)(=O)c2ccc(Cl)cc2)Oc2ccc(NS(C)(=O)=O)cc2CC1=O	inactive: 1.02
O=C1O[C@H](c2ccccc2)[C@H](c2ccccc2)N2[C@H]1[C@@H](C(=O)O)[C@]1(C(=O)Nc3ccc(C#CC4(O)CCCCCC4)cc31)[C@H]2c1ccccc1OCCO	inactive: 0.941
COc1ccc(cc1)CN1CC[C@]2(CC1)CN([C@@H](CO)c1[nH]c3cc(ccc3c12)OC)C(=O)Nc1ccc(cc1)F	inactive: 1.02
C[C@@H]1CN([C@@H](C)CO)C(=O)c2cc(NC(=O)c3ccncc3)ccc2O[C@@H](C)CCCCO[C@H]1CN(C)C(=O)Nc1ccc(C(F)(F)F)cc1	inactive: 0.995
CC(C)NC(=O)N(C)C[C@H]1Oc2ccc(NC(=O)Cn3cnnn3)cc2C(=O)N([C@@H](C)CO)C[C@@H]1C	inactive: 0.991
CCOc1ccc(NC(=O)CC(C)O)cc1 (stereo unspecified)	inactive: 0.976
C[C@@H]1CN([C@@H](C)CO)C(=O)c2cc(-c3cccnc3)cnc2O[C@@H]1CN(C)C(=O)Nc1ccc2c(c1)OCO2	inactive: 0.975
CC[C@@H](C)NCCCCOc1ccc(Cl)cc1C(C)(C)C	inactive: 0.904
C[C@H](CO)N1C[C@H](C)[C@@H](CN(C)C(=O)Nc2cccc3ccccc23)Oc2c(NS(=O)(=O)c3ccc(Cl)cc3)cccc2C1=O	inactive: 1

SMILES	relative growth
C[C@H]1CN([C@@H](C)CO)C(=O)c2cc(NC(=O)CCCCCC(=O)Nc3ccccc3N)ccc2O[C@H]1CN(C)Cc1ccc(C(F)(F)F)cc1	inactive: 1.04
Cc1nc2n(c(=O)c1CCN1CCC(c3noc4cc(F)ccc34)CC1)CCCC2O (stereo unspecified)	inactive: 1.11
C[C@@H]1CN([C@H](C)CO)C(=O)Cc2cc(NC(=O)CCN3CCOCC3)ccc2O[C@@H]1CN(C)C(=O)Nc1ccc2c(c1)OCO2	inactive: 1
CC(C)NC(=O)N(C)C[C@H]1Oc2c(NC(=O)C3CCOCC3)cccc2C(=O)N([C@H](C)CO)C[C@H]1C	inactive: 0.999
C[C@H](CO)N1C[C@H](C)[C@@H](CN(C)Cc2ccncc2)Oc2ccc(NC(=O)Nc3ccc(C(F)(F)F)cc3)cc2C1=O	inactive: 0.971
Clc1ccc2ncccc2c1	inactive: 0.98
O=C(C[C@H]1C=C[C@@H](NC(=O)Nc2cc(F)ccc2F)[C@@H](CO)O1)NCCCN1CCOCC1	inactive: 1.02
C[C@@H]1CN([C@H](C)CO)C(=O)c2cc(NC(=O)NC3CCCCC3)ccc2O[C@@H](C)CCCCO[C@H]1CN(C)S(=O)(=O)c1cccs1	inactive: 1.01
Cc1cc(O)c(C(C)C)cc1Cl	inactive: 1.01
C[C@@H]1CN([C@H](C)CO)C(=O)c2cc(/C=C/c3ccccc3)cnc2O[C@H]1CN(C)C(=O)CN1CCOCC1	inactive: 1
C[C@H](CO)N1C[C@H](C)[C@H](CN(C)S(=O)(=O)c2ccccc2)Oc2ccc(NC(=O)C3CC3)cc2C1=O	inactive: 0.982
COc1ccc(NC(=O)N(C)C[C@@H]2Oc3c(NS(=O)(=O)c4cn(C)cn4)cccc3C(=O)N([C@H](C)CO)C[C@H]2C)cc1	inactive: 1.01
COc1ccc(-c2cnc3c(c2)C(=O)N([C@@H](C)CO)C[C@@H](C)[C@H](CN(C)C(=O)Cc2ccncc2)O3)cc1	inactive: 0.993
C/C=C/c1ccc2c(c1)O[C@H](CN(C)Cc1ccc(C(=O)O)cc1)[C@H](C)CN([C@H](C)CO)S2(=O)=O	inactive: 1.01
C[C@@H]1CN([C@H](C)CO)C(=O)c2cc(NC(=O)Cc3ccccc3)ccc2O[C@H]1CN(C)Cc1ccc(Cl)c(Cl)c1	inactive: 1.02
COc1ccc(S(=O)(=O)N(C)C[C@@H]2Oc3cc(-c4ccccc4OC)ccc3S(=O)(=O)N([C@H](C)CO)C[C@H]2C)cc1	inactive: 1.06
C[C@H]1CN([C@@H](C)CO)C(=O)CCCn2nncc2CO[C@H]1CN(C)C(=O)Nc1ccc(C(C)(C)C)cc1	inactive: 1
CCOC(=O)[C@H]1[C@@H]2C=C[C@]3(O2)[C@H](C(=O)NCc2ccccc2)N(Cc2cc(OC)cc(OC)c2)C(=O)[C@@H]13	inactive: 0.957
Cc1noc(C)c1NC(=O)Nc1ccc2c(c1)CC(=O)N([C@H](C)CO)C[C@@H](C)[C@H](CN(C)S(=O)(=O)c1cccs1)O2	inactive: 0.998
C[C@H](CO)N1C[C@H](C)[C@@H](CN(C)S(=O)(=O)c2ccccc2)Oc2ccc(NS(=O)(=O)c3ccc(F)cc3)cc2CC1=O	inactive: 1.04
C[C@@H]1CCCCO[C@@H](CN(C)C(=O)Nc2ccc(C(F)(F)F)cc2)[C@H](C)CN([C@@H](C)CO)C(=O)c2cc(NS(=O)(=O)c3ccc(Cl)cc3)ccc2O1	inactive: 0.984

SMILES	relative growth
Cc1c2occ(C(C)(C)C)c2cc2c3c(c(=O)oc12)CCCC3	inactive: 1.04
C[C@H](CO)N1C[C@H](C)[C@@H](CN(C)C(=O)NC2CCCCC2)OCCCC[C@H](C)Oc2ccc(NC(=O)c3ccccc3)cc2C1=O	inactive: 1.01
Cc1ccc(S(=O)(=O)Nc2ccc3c(c2)C(=O)N([C@H](C)CO)C[C@@H](C)[C@H](CN(C)S(=O)(=O)c2ccc(F)cc2)OCCCC[C@@H](C)O3)cc1	inactive: 1.02
C[C@H]1CN([C@@H](C)CO)C(=O)c2cc(C#CC3(O)CCCC3)cnc2O[C@@H]1CN(C)C(=O)Cc1cccnc1	inactive: 0.996
C[C@H]1CN([C@@H](C)CO)C(=O)CCCn2nncc2CO[C@H]1CN(C)C(=O)Nc1ccccc1C(F)(F)F	inactive: 0.981
CC(C)N1C[C@@H](CN(C)Cc2ccc(Oc3ccccc3)cc2)Oc2c(NC(=O)c3ccncc3)cccc2C1=O	inactive: 1.02
N#CCC1CCNCC1	inactive: 0.998
C[C@H]1CN([C@@H](C)CO)C(=O)c2cccc(NC(=O)C3CCCCC3)c2O[C@H]1CN(C)C(=O)Nc1cccc2ccccc12	inactive: 1
CC(C)NC(=O)Nc1ccc2c(c1)CC(=O)N([C@H](C)CO)C[C@H](C)[C@@H](CN(C)Cc1ccc(-c3ccccc3)cc1)O2	inactive: 1.02
O=C(O)CNc1ncccc1O	inactive: 1.03
C=CCSCC=C	inactive: 1
C[C@H](CO)N1C[C@H](C)[C@H](CN(C)Cc2ccc(C(=O)O)cc2)Oc2ccc(NC(=O)Nc3cccc4ccccc34)cc2C1=O	inactive: 0.987
COc1ccc(S(=O)(=O)Nc2cccc3c2O[C@H](CN(C)S(=O)(=O)c2ccc(OC)cc2)[C@@H](C)CN([C@H](C)CO)C3=O)cc1	inactive: 0.987
C[C@@H]1CCCCO[C@@H](CN(C)C(=O)Nc2cccc3ccccc23)[C@H](C)CN([C@@H](C)CO)C(=O)c2cc(NC(=O)Nc3ccc(C(F)(F)F)cc3)ccc2O1	inactive: 1.06
C[C@H]1CN([C@@H](C)CO)S(=O)(=O)c2ccc(-c3ccccc3F)cc2O[C@@H]1CN(C)S(C)(=O)=O	inactive: 1.03
C[C@@H]1CN([C@H](C)CO)C(=O)c2cc(NS(=O)(=O)c3ccccc3)ccc2O[C@@H](C)CCCCO[C@H]1CN(C)Cc1ccc(C(=O)O)cc1	inactive: 1
N=C(N)SC=CC(=O)O	inactive: 0.967
C[C@@H]1CN([C@H](C)CO)C(=O)c2cc(NC(=O)Nc3ccc(F)cc3)ccc2O[C@@H](C)CCCCO[C@@H]1CN(C)S(=O)(=O)c1ccc(Cl)cc1	inactive: 1.06
C[C@@H]1CCCCO[C@@H](CN(C)C(=O)CCCN(C)C)[C@H](C)CN([C@@H](C)CO)C(=O)c2cc(N(C)C)ccc2O1	inactive: 0.989
